Consider 20 molecules from paper PMC9911399, “Two distinct binding modes provide the RNA-binding protein RbFox with extraordinary sequence specificity”.

T1: RBFOX1 RRM (Homo sapiens, UniProt Q9NWB1 109-208)
T1 sequence: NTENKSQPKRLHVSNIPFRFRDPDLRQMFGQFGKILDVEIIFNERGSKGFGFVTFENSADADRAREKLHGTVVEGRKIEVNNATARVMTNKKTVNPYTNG

B1: GUACGAU (DNA:RNA)
RNA: GGGAGACCGGAAUUCAGAUUGUCCGUACGAUUUAAAUCCCGUCGUAGCCACCA
DNA 1: CAATCTGAATTCCGGTCTCCC
DNA 2: TGGTGGCTACGACGGGATT
B2: UGCGUUG (DNA:RNA)
RNA: GGGAGACCGGAAUUCAGAUUGUCCUGCGUUGUUAAAUCCCGUCGUAGCCACCA
DNA 1: CAATCTGAATTCCGGTCTCCC
DNA 2: TGGTGGCTACGACGGGATT
B3: GUGCGGG (DNA:RNA)
RNA: B1 RNA with A27G, A30G, U31G
DNA 1: CAATCTGAATTCCGGTCTCCC
DNA 2: TGGTGGCTACGACGGGATT
B4: CCAAUCU (DNA:RNA)
RNA: B1 RNA with G25C, U26C, C28A, G29U, A30C
DNA 1: CAATCTGAATTCCGGTCTCCC
DNA 2: TGGTGGCTACGACGGGATT
B5: CAUAUUC (DNA:RNA)
RNA: B2 RNA with U25C, G26A, C27U, G28A, G31C
DNA 1: CAATCTGAATTCCGGTCTCCC
DNA 2: TGGTGGCTACGACGGGATT
B6: CGCGGUG (DNA:RNA)
RNA: B2 RNA with U25C, U29G
DNA 1: CAATCTGAATTCCGGTCTCCC
DNA 2: TGGTGGCTACGACGGGATT
B7: GGCAUCG (DNA:RNA)
RNA: B2 RNA with U25G, G28A, U30C
DNA 1: CAATCTGAATTCCGGTCTCCC
DNA 2: TGGTGGCTACGACGGGATT
B8: UCGUCUA (DNA:RNA)
RNA: B2 RNA with G26C, C27G, G28U, U29C, G31A
DNA 1: CAATCTGAATTCCGGTCTCCC
DNA 2: TGGTGGCTACGACGGGATT
B9: AACGAGC (DNA:RNA)
RNA: B2 RNA with U25A, G26A, U29A, U30G, G31C
DNA 1: CAATCTGAATTCCGGTCTCCC
DNA 2: TGGTGGCTACGACGGGATT
B10: AUGAGAU (DNA:RNA)
RNA: B1 RNA with G25A, A27G, C28A
DNA 1: CAATCTGAATTCCGGTCTCCC
DNA 2: TGGTGGCTACGACGGGATT
B11: GCAUCGG (DNA:RNA)
RNA: B1 RNA with U26C, C28U, G29C, A30G, U31G
DNA 1: CAATCTGAATTCCGGTCTCCC
DNA 2: TGGTGGCTACGACGGGATT
B12: UCCGCCG (DNA:RNA)
RNA: B2 RNA with G26C, U29C, U30C
DNA 1: CAATCTGAATTCCGGTCTCCC
DNA 2: TGGTGGCTACGACGGGATT
B13: UUAUCUU (DNA:RNA)
RNA: B1 RNA with G25U, C28U, G29C, A30U
DNA 1: CAATCTGAATTCCGGTCTCCC
DNA 2: TGGTGGCTACGACGGGATT
B14: AUAUAUU (DNA:RNA)
RNA: B1 RNA with G25A, C28U, G29A, A30U
DNA 1: CAATCTGAATTCCGGTCTCCC
DNA 2: TGGTGGCTACGACGGGATT
B15: CUGCAAC (DNA:RNA)
RNA: B1 RNA with G25C, A27G, G29A, U31C
DNA 1: CAATCTGAATTCCGGTCTCCC
DNA 2: TGGTGGCTACGACGGGATT
B16: GGUAGGU (DNA:RNA)
RNA: B1 RNA with U26G, A27U, C28A, A30G
DNA 1: CAATCTGAATTCCGGTCTCCC
DNA 2: TGGTGGCTACGACGGGATT
B17: GCUCCUC (DNA:RNA)
RNA: B1 RNA with U26C, A27U, G29C, A30U, U31C
DNA 1: CAATCTGAATTCCGGTCTCCC
DNA 2: TGGTGGCTACGACGGGATT
B18: UUGAGCC (DNA:RNA)
RNA: B1 RNA with G25U, A27G, C28A, A30C, U31C
DNA 1: CAATCTGAATTCCGGTCTCCC
DNA 2: TGGTGGCTACGACGGGATT
B19: GUAAGAG (DNA:RNA)
RNA: B1 RNA with C28A, U31G
DNA 1: CAATCTGAATTCCGGTCTCCC
DNA 2: TGGTGGCTACGACGGGATT
B20: ACUUGCA (DNA:RNA)
RNA: B1 RNA with G25A, U26C, A27U, C28U, A30C, U31A
DNA 1: CAATCTGAATTCCGGTCTCCC
DNA 2: TGGTGGCTACGACGGGATT

Residue numbers refer to the chain shown, from its start. Some of the results follow.

The target of the test is T1, RBFOX1 RRM. Put plainly: EMSA; HiTS-Eq, 1 nM pool, 10 min; buffer printed only for the single-RNA assays: 10 mM Tris pH 7.5, 150 mM NaCl, 3.4 mM EDTA, 0.001% NP-40, 30 C. To be noted: tags: His6 N-terminal (pET28a); label: 5' 32P. In outline:
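Purified RbFox RRM, wild type or mutant, was incubated for 10 min in 50 µL with 1 nM of a 5′-radiolabelled RNA pool carrying 7 randomized nucleotides, whose flanks were annealed to DNA oligonucleotides, over a series of increasing protein concentrations. Unbound RNA was resolved on 8% native PAGE, cut out, reverse-transcribed, barcoded by PCR and sequenced on an Illumina HiSeq 2500. Relative association constants were derived from changes in read counts for each RNA species versus the control reaction and normalised to the cognate motif.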
As for B1, the binding signal is 0.0134 KA relative to UGCAUGU.

In the case of B2, the binding signal is 0.0296 KA relative to UGCAUGU.

B3: the binding signal was 0.0167 KA relative to UGCAUGU. Under B4 stands 0.000199 KA relative to UGCAUGU. As to B5, the binding signal was 0.00242 KA relative to UGCAUGU. To B6 belongs 0.0197 KA relative to UGCAUGU; to B7, 0.0154 KA relative to UGCAUGU; to B8, 0.00633 KA relative to UGCAUGU. Under B9 stands 0.00705 KA relative to UGCAUGU; under B10, 0.00905 KA relative to UGCAUGU. Regarding B11, the binding signal is 0.0143 KA relative to UGCAUGU. To B12 belongs 0.00754 KA relative to UGCAUGU. To B13 belongs 0.00561 KA relative to UGCAUGU; to B14, 0.0016 KA relative to UGCAUGU.

With B15, the binding signal was 0.0117 KA relative to UGCAUGU. To B16 belongs 0.0113 KA relative to UGCAUGU; to B17, 0.00338 KA relative to UGCAUGU; to B18, 0.0137 KA relative to UGCAUGU. In the case of B19, the binding signal was 0.0116 KA relative to UGCAUGU. To B20 belongs 0.0132 KA relative to UGCAUGU.
